This is an account of results in ChEMBL document CHEMBL4888484, “Replenishing the malaria drug discovery pipeline: Screening and hit evaluation of the MMV Hit Generation Library 1 (HGL1) against asexual blood stage Plasmodium falciparum ,using a nano luciferase reporter read-out” (2022).

The whole screen tested about 150,000 compounds, of which about 540 (0.36%) showed an effect of 50% or more. The list shows a part of the results.

The test has as its system Plasmodium falciparum. Put plainly: Primary screen in NF54 nanoGlo assay, in single point, at 2uM, 72h; a lower Z score goes with more inhibition. The format is functional, Erythrocyte. The conditions noted are these: timepoint 72 hour.
Take `C=CCC[C@H](O)CN(C)c1cnn(C)c1`: the “% Inhibition” value was 14% and the Z score is reported as -1.54.
For the molecule `CCCCN(C)C(=O)c1snc2c(=O)n(CC(C)C)c(=O)[nH]c12`, the “% Inhibition” value is given as 6% and the Z score is -1.04.
With `CN1C(=O)NC(C)(C2CCCN(CCC3CCCC3)C2)C1=O` (stereo unspecified), the “% Inhibition” value was 1% and the Z score is on record as -0.17.
The like results for `CCCn1cnnc1CN(C)C(=O)Cn1cccc(OC)c1=O` were, in that order, -11% and 2.11.
The like results for `CC(NC(=O)CC1CC2CCC1C2)c1nncn1C` (stereo unspecified) were, in that order, -9% and 1.53.
In the case of `NC(=O)c1ccc(N[C@@H](C(=O)N2CCCCC2)c2ccccc2)cc1`, the “% Inhibition” value is given as -6% and the Z score was found to be 1.
As to `Cc1ccc(S(=O)(=O)N[C@H]2CCN(C3CCCC3)C2)c(C)c1`, the “% Inhibition” value is listed as -7% and the Z score was 0.68.
The like results for `Cc1nn(C)c(C)c1NC(=O)Cn1cnc2ccccc2c1=O` were, in that order, -1% and 0.18.
In the case of `CN[C@H]1CCCN(C(=O)NCc2cccnc2C)c2ccccc21`, the “% Inhibition” value is -13% and the Z score is given as 2.37.
Take `CN(C)CC(=O)NCC1(N2CCOC(C)(C)C2)CCCCC1`: the “% Inhibition” value came out at 2% and the Z score is given as -0.27.
Turning to `Cc1n[nH]c(C)c1S(=O)(=O)N1CC[C@@](O)(C2CCOCC2)[C@H](C)C1`, the “% Inhibition” value is given as -10% and the Z score stood at 1.97.
For `CCN1CC2(CCN(Cc3ccc(OCC(N)=O)c(OC)c3)CC2)OC1=O`, in that order: -10% and 1.94.
For `O=c1cc(Nc2ccccc2)c2ccccc2[nH]1`, the “% Inhibition” value is given as -6% and the Z score is on record as 0.84.
For `COc1cc2c(cc1-c1nccn1CCN1CCCC1)CCC2`, in that order: 5% and -0.82.
As to `COc1cccc(N2CCN(C(=O)c3ccc(C)nc3C3CCN(Cc4ccc(C(F)(F)F)cc4)CC3)CC2)c1`, the “% Inhibition” value is given as -11% and the Z score was found to be 2.15.
Take `Cn1ccnc1CC(=O)c1ccc(Cl)cc1`: the “% Inhibition” value is recorded as -21% and the Z score is listed as 2.45.
For `CCOc1c(CN(C)C(=O)Cn2nc(C)cc2N)cccc1OC`, in that order: -8% and 1.47.
The like results for `O=C(Nc1ccccc1Cl)N1C[C@@H]2C[C@H](NS(=O)(=O)c3cccs3)[C@H]1C2` were, in that order, 25% and -2.81.
`Cc1c(CN2CCC(n3nccc3NC(=O)[C@H]3CCOC3)CC2)[nH]c2ccccc12`: the “% Inhibition” value is -11% and the Z score is on record as 1.01.
For `CC(C)Cc1noc(CN(CCO)C2CS(=O)(=O)CC2O)n1` (stereo unspecified), in that order: -14% and 1.83.
For `CCC12OC3C(O)C4CC3C1C4C(=O)N2c1ccc(OC)cc1` (stereo unspecified), in that order: -8% and 1.3.
For `CCNC(=NCc1cc(-c2ccccc2)on1)NCC`, in that order: -3% and 0.25.
As to `C[C@H]1Cc2[nH]ncc2CN(S(=O)(=O)c2cnn(C3CCCC3)c2)C1`, the “% Inhibition” value is given as -11% and the Z score is recorded as 1.74.
`COc1ccccc1NS(=O)(=O)c1ccc2c(c1)CCCN2C(=O)C1CCC1`: the “% Inhibition” value is -1% and the Z score is 0.15.
For `CC(C)(C)CNc1cccc(C(=O)N2CCC[C@@H]2CO)n1`, in that order: 0% and 0.05.
For `O=C1CCN(c2cc(C(F)(F)F)nc(-c3ccncc3)n2)CCN1`, in that order: -2% and 0.39.
The like results for `Cc1ncn(C)c1C(=O)N1CCC(Oc2ccc(Cl)cc2)CC1` were, in that order, -6% and 1.07.
On to `COc1ccc(NC(=O)N2CC(C)(C)C2(C)C)cc1OC`, for which the “% Inhibition” value is -8% and the Z score turned out to be 0.88.
Regarding `Cc1noc(C)c1C(=O)N1CCO[C@H](c2cccnc2)C1`, the “% Inhibition” value is -6% and the Z score is listed as 1.09.
As to `Cc1n[nH]cc1CNCc1cccc(S(=O)(=O)N2CCCCC2)c1`, the “% Inhibition” value was -8% and the Z score is 0.78.
Turning to `CC(=O)c1cn(CC(=O)N(C)c2ccccc2)c(=O)n(C)c1=O`, the “% Inhibition” value was -14% and the Z score was 1.94.
For `COC(=O)C1=C(C(=O)OC)SC(=C2C(=S)C(C)(C)N(C(=O)COc3nc4ccccc4s3)c3cc(C)ccc32)S1`, in that order: 3% and -0.39.
For `O=C(COC(=O)CCC1CCCCC1)NCc1ccc2c(c1)OCO2`, in that order: 34% and -3.79.
The like results for `O=C(CN1CCN(c2ccnc3ccncc23)CC1)N1CCc2ccccc21` were, in that order, -1% and 0.09.
Regarding `O=C(O)c1cccc2c1OCCN(CCn1cc(Cl)cn1)C2`, the “% Inhibition” value came to 2% and the Z score was -0.37.
For `CC1(C)CN(C(=O)CN2CCS(=O)(=O)CC2)[C@H]1C1CC1`, in that order: -6% and 0.94.
For `Cn1ccc2cc(CN3CCC4(CC3)NC(=O)C[C@@H]4C(=O)O)ccc21`, the “% Inhibition” value is -20% and the Z score is recorded as 2.02.
The like results for `CC(O)(CCNC(=O)C1CCS(=O)(=O)C1)c1ccccc1` (stereo unspecified) were, in that order, -6% and 0.57.
For `Cc1ncsc1C(=O)N1CCN(C)CC1`, in that order: -5% and 0.73.
For `O=C(CNC(=O)Cc1ccccc1)NCC(=O)NC[C@H]1CCCO1`, in that order: -14% and 1.61.
As for `CC1(C)COCC(C)(C)N1C(=O)c1ncccc1F`, the “% Inhibition” value is listed as -7% and the Z score was 1.31.
Consider `CC(C)C(NCC1CCN(S(C)(=O)=O)C1)c1ccc(F)c(F)c1` (stereo unspecified), for which the “% Inhibition” value is on record as -13% and the Z score amounted to 2.41.
The like results for `C[C@@H](CC(=O)Nc1cc[nH]n1)S(=O)(=O)c1ccc(F)cc1` were, in that order, 0% and -0.03.

Usually % Inhibition stands for the change of the read-out against control, counted positive when it falls.
